Measured values: PubChem BioAssay AID488969 (Vanderbilt High Throughput Screening Facility, 2010)
Over roughly 110,000 compounds, “z-score” has its median near -0.1; the highest 2% begin near 2. The list shows a part of the results. Activity calls are given as the source filed them.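 How the source made its calls: active means z-score in the third read window above 3 or below -3; inactive means the rest.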

Target: Metabotropic glutamate receptor 8 (Rattus norvegicus) (UniProt P70579)
Assay: rat mGluR8 modulators via GIRK flux, primary screen, cell-based, thallium flux, HTS (AID 488969)
Settings: HEK293 rat mGluR8, GIRK (G protein-gated inwardly rectifying potassium channel) thallium flux, FluoZin2; at 10 µM; stronger effect = higher value; submaximal glutamate (EC20) added with thallium

Chain of UniProt P70579 (P70579 whole entry, looked up): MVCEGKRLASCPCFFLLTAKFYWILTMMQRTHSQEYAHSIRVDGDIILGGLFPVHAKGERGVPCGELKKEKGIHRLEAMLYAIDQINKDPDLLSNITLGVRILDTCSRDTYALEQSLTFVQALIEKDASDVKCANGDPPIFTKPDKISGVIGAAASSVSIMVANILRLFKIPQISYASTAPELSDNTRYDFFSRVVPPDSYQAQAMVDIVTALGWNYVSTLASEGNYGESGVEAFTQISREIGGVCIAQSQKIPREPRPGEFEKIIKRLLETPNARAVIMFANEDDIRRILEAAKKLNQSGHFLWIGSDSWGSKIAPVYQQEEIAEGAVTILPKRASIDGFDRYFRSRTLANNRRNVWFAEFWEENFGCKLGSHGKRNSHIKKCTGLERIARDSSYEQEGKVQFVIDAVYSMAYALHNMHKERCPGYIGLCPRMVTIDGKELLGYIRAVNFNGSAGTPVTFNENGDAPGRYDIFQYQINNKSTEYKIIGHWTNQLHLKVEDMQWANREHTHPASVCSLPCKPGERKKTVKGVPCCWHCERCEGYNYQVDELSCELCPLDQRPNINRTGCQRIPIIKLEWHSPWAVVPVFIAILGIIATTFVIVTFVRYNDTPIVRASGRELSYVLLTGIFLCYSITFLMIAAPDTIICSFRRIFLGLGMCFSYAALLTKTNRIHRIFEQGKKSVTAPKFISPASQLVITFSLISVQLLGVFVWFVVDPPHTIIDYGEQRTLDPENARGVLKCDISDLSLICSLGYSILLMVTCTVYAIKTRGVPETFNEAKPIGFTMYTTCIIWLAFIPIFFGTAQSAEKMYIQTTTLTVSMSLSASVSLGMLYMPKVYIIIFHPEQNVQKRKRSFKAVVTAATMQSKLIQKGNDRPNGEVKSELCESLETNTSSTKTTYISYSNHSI

| SMILES | z-score |
| --- | --- |
| CC(C)c1ccc(OCC(=O)NCc2ccco2)cc1 | -0.351 |
| O=c1[nH]nc(Cc2ccc(Cl)cc2)c2ccccc12 | 0.0846 |
| CCC(=O)Nc1cccc(NC(=O)CSc2nnnn2Cc2ccccc2)c1 | -0.547 |
| Cc1ccc(C(c2nnnn2C2CCCCC2)N2CCc3ccccc32)cc1 (configuration not stated) | -0.876 |
| CCCCCCCOC(=O)C1=C(C)Nc2ncnn2C1c1cccs1 (configuration not stated) | -0.256 |
| O=C(CN1CCN(Cc2ccccc2F)C1=O)NCCc1ccc(Cl)cc1 | -0.0799 |
| COc1cccc(/C=N/NC(=O)CCCC(=O)NC2CCCCC2)c1 | -0.369 |
| Cc1cccc(COc2ccc(/C(O)=C3\C(=O)C(=O)N(CCN(C)C)C3c3ccncc3)cc2)c1 (configuration not stated) | -0.393 |
| Cc1[nH]nc2cn[nH]c12 | 0.0297 |
| COc1ccc(-c2cc(CNC(C)=O)on2)cc1 | -0.174 |
| Cn1cccc1CC(=O)NNC(=S)Nc1ccc(Cl)cc1Cl | 0.615 |
| c1ccc(-c2noc(C3CCCCC3)n2)nc1 | -0.0672 |
| CC(C)CCNC(=S)Nc1ccccc1F | 0.154 |
| CCOc1cc(C(=S)N2CCCCC2)ccc1OCC(=O)NCc1ccccc1 | -0.00169 |
| CCn1c(/C=C2\C(=O)Nc3ccccc32)nc2ccccc2c1=O | -0.221 |
| CCc1ccc(C2C(C(=O)O)c3ccccc3C(=O)N2C)cc1 (configuration not stated) | -0.299 |
| O=C(NCc1ccc(F)cc1)C1(c2cccs2)CCOCC1 | -0.219 |
| COc1ccc(CCN(Cc2cc3cccc(C)c3[nH]c2=O)C(=O)N2CCCC2)cc1OC | 0.181 |
| Cc1nn(C(=O)c2ccco2)c(C)c1Br | -0.107 |
| Cc1cccc(NC(=O)C2CCCN2/C=C/C(=O)C(F)(F)F)c1C (configuration not stated) | 0.104 |
| O=C(Cc1ccccc1)NCc1ccc(F)cc1 | -0.0971 |
| Cc1ccc(C(=O)Oc2ccc(-c3nccc(-c4ccccn4)n3)cc2)cc1 | -0.114 |
| O=C(Nc1nccs1)c1ccc(Cl)cc1[N+](=O)[O-] | -0.05 |

| SMILES | z-score |
| --- | --- |
| Cc1ccccc1N1C(=O)c2sc3nc4c(c(=O)n3c2C1=O)CCC4 | 0.172 |
| COc1ccc(NC(=O)CSc2nc(O)cc(=O)n2C)cc1 | 0.0146 |
| CCOC(=O)CC(NC(=O)C1c2ccccc2Oc2ccccc21)c1ccccc1Cl (configuration not stated) | -0.687 |
| Clc1ccc(SCc2cc(-c3ccccc3)on2)cc1 | -0.103 |
| O=C(NCN1CCc2ccccc2C1)c1cnccn1 | 0.178 |
| Cc1ccc(C(=O)NNC(=O)Cc2cccs2)cc1 | 0.0316 |
| O=C(NCCO)c1nc2ccccc2s1 | 1.28 |
| CCOC(=O)NC(=O)/C(C#N)=N\Nc1ccc(Cl)cc1 | -0.748 |
| Cc1nc(CNS(=O)(=O)c2cccc(F)c2)cs1 | -0.136 |
| COc1ccccc1CNC(=O)CSc1ccc(C(=O)Nc2ccccc2OC)cc1[N+](=O)[O-] | 0.0929 |
| COC(=O)C1=C(O)C(C(=O)OC)C(c2ccc(C)cc2)C(C#N)(C#N)C1c1ccc(C)cc1 (configuration not stated) | -1.33 |
| COC(=O)CCCC[C@H]1SC[C@H]2NC(=O)N[C@]21O | 0.0742 |
| O=C(O)CSCc1cn2cc(Cl)ccc2n1 | 0.0981 |
| CC1CCCC(C)N1c1nnc(NC(=O)c2cc(-c3ccc(Br)cc3)on2)s1 (configuration not stated) | 2.04 |
| O=C(NCCNC(=O)c1cccs1)c1ccco1 | 0.31 |
| COC(=O)[C@H](C)NC(=O)Nc1cc(OC)ccc1OC | -0.238 |
| N#C/C(=C\c1cn(Cc2ccccc2)c2ccccc12)C(=O)NCc1ccco1 | -0.0595 |
| CCN(CC)S(=O)(=O)c1ccc(-c2nnc(SCC(=O)Nc3ccc4c(c3)OCO4)o2)cc1 | 0.536 |
| CN1CCCN(C(=O)Cc2c(Cl)cccc2Cl)c2nc3ccccc3nc21 | 0.275 |
| CCn1c2c(c(C)cc1=O)C(=O)CC(C)(C)C2 | 0.2 |
| Cc1cc(C)cc(N2CCCn3c2nc2c3c(=O)n(CC(=O)OCc3ccccc3)c(=O)n2C)c1 | -0.428 |
| O=C(O)C1C2C=CC(CC2)C1C(=O)O (configuration not stated) | -1.28 |
| CCN(CC)S(=O)(=O)c1ccc(N=NC2=C(O)CC(C)(C)CC2=O)cc1 | 0.244 |

| SMILES | z-score |
| --- | --- |
| CCSc1cc(N2CCCC2)nc(-c2ccccc2)n1 | -0.247 |
| COc1ccc(C(=O)NC2CCN(C(=S)NCc3ccco3)CC2)cc1 | -0.112 |
| CSc1nc(SCC(=O)NCc2ccco2)c2c3c(sc2n1)CN(C)CC3 | -0.588 |
| CCCCSc1nnc(-c2cc(Br)ccc2N)c(=O)[nH]1 | 0.279 |
| Cc1ccc2[nH]c(C)c(CCNC(=O)C3CCCCC3C(=O)OCC(F)(F)F)c2c1 (configuration not stated) | -0.519 |
| O=C(c1cnn2cccnc12)N1CCN(Cc2ccc3c(c2)OCO3)CC1 | -0.0594 |
| O=C(CNCc1ccco1)Nc1ccccc1-n1cccc1 | -0.0582 |
| CCn1c(COc2ccc(C)cc2)nnc1SCC(=O)Nc1ccc2c(c1)OCCO2 | -0.0204 |
| CCC(C)(C)NC(=O)C(c1ccc(C)cc1)N(Cc1ccco1)C(=O)CCC(=O)Nc1nccs1 (configuration not stated) | -0.299 |
| Cc1ccc(S(=O)(=O)CCSc2cccc(C(=O)Nc3ccccc3C(=O)O)c2)cc1 | -0.687 |
| c1ccc(C2Oc3ccccc3C3CC(c4cccs4)=NN32)cc1 (configuration not stated) | 1.42 |
| Cc1ccc(NC(=O)N2CCN(Cc3ccc4c(c3)OCO4)CC2)cc1 | -0.449 |
| CN(C)S(=O)(=O)Oc1ccsc1C(=O)Nc1cccc(Cl)c1Cl | 0.0809 |
| CC(C)CNS(=O)(=O)c1ccc(CCC(=O)NCc2cccnc2)cc1 | -0.394 |
| COc1ccc(S(=O)(=O)Nc2ccc3oc(C)c(C(C)=O)c3c2)cc1 | -0.227 |
| O=C(Oc1ccc(/C=N/Nc2ccccc2)cc1)c1ccccc1 | 0.464 |
| COc1cccc(/C=N/NC(=O)c2nc(-c3ccccc3)cc(-c3ccccc3)n2)c1 | -0.286 |
| CCCCCCCN(C(=O)CCl)c1cccc(C)c1 | -0.252 |
| CN(C)CC/C=C1\c2cc(F)ccc2CSc2ccccc21 | 1.45 |
| CS(=O)(=O)N(CC(=O)NCCSC1CCCCC1)c1ccc2c(c1)OCO2 | -0.0915 |
| COc1ccc(CCNC(=O)N2c3ccccc3Sc3ccccc32)cc1 | -0.197 |
| O=C(NCCOc1cccc(Cl)c1Cl)c1cc(-n2cnnc2)ccc1Cl | -0.00528 |
| Cc1ccc2[nH]c(=O)c(C(c3nnnn3CCc3ccccc3)N3CCOCC3)cc2c1 (configuration not stated) | 0.0263 |

| SMILES | z-score |
| --- | --- |
| O=C(CCc1ccccc1)NNC(=S)NC(=O)c1ccc(Cl)cc1 | active: 3.03 |
| COc1ccc2c(c1)CCc1c(C(=O)Nc3c(C)nn(Cc4ccccc4)c3C)noc1-2 | 0.0597 |
| O=C(CCCCCNc1nc(=S)[nH]c2ccccc12)NCCc1c[nH]c2ccccc12 | -0.261 |
| C=CCNC(=O)c1onc(CSc2ccc(F)c(F)c2)c1C(=O)O | -0.335 |
| COc1cccc(NC(=S)N/N=C2\CC(C)(C)Oc3ccc(O)cc32)c1 | -0.0142 |
| COC(=O)c1ccc(NCCC(=O)O)cc1 | -0.0634 |
| CC(NC(=O)Cc1ccccc1)c1ccc(F)cc1 (configuration not stated) | -0.0267 |
| C(=N\N1CCN(C2c3ccccc3-c3ccccc32)CC1)/c1ccncc1 | -0.148 |
| COc1ccccc1-c1coc2cc(OC(=O)/C=C/c3ccccc3)ccc2c1=O | 0.68 |
| COc1cc(/C=N/n2c(C)n[nH]c2=S)ccc1OCc1ccc(F)cc1 | 0.484 |
| C=CCn1c(SCc2nc3ccccc3[nH]2)nnc1-c1ccccn1 | -0.0849 |
| C/C(=C\c1ccco1)C1Nc2cccc3cccc(c23)N1 | -1.15 |
| Cc1ccc(Cn2ccc(NC(=O)c3c(-c4ccccc4Cl)noc3C)n2)cc1 | -0.614 |
| COC(=O)C(C)N(C(=O)c1ccc(C(=O)c2ccccc2)cc1)c1c(C)cccc1C (configuration not stated) | -0.568 |
| Cc1ccc(-c2ccc(/C=C3\C(=O)ON=C3c3ccccc3)o2)c([N+](=O)[O-])c1 | 0.0567 |
| COc1ccc(S(=O)(=O)N(C)CC(=O)N2CCN(C)CC2)cc1C | 0.16 |
| COc1ccc(NC(=O)Nc2ccc(C)cc2OC(F)F)cc1OC | -0.0436 |
| S=C(Nc1ccc(Cl)cc1)NN1CCOCC1 | 0.0745 |
| O=C(NCc1ccc(F)cc1)C1CC(=O)N(CCc2ccccc2)C1 (configuration not stated) | 0.722 |
| Cc1cccc(OCC(=O)Nc2nc3ccc([N+](=O)[O-])cc3s2)c1 | 2.05 |
| CC(=O)Nc1ccc2c(c1)nc(CCN1CCC(C)CC1)n2C | 0.591 |
| CCOC(=O)N1CCN(C(=O)CN(c2ccc(Oc3ccccc3)cc2)S(C)(=O)=O)CC1 | 0.55 |
| CCOC(=O)Nc1nc(-c2ccccc2)c(C(=O)c2ccccc2)s1 | -0.809 |

| SMILES | z-score |
| --- | --- |
| C/C(=N\N=C(/N)SC1CC(=O)N(c2ccc(Br)cc2)C1=O)c1cccs1 (configuration not stated) | 0.0622 |
| COc1ccccc1/C=C/C=N/n1c(-c2cc(C)[nH]n2)n[nH]c1=S | 0.0768 |
| CCC(C(=O)Nc1ccccc1-c1ccccc1)c1ccccc1 (configuration not stated) | -0.816 |
| O=C(NCc1ccccc1)C1CCCN1S(=O)(=O)c1cccc2cccnc12 (configuration not stated) | -0.431 |
| Cn1c(O)c(N=NC(=O)c2cccc(S(=O)(=O)N3CCCCC3)c2)c2ccccc21 | -0.947 |
| CCCOc1ccc(N2C(=O)CC(N3CCN(c4nc5ccccc5s4)CC3)C2=O)cc1 (configuration not stated) | 0.835 |
| O=C(CSc1ncc(-c2ccc(F)cc2)[nH]1)N1CCCCC1 | -0.122 |
| O=c1oc(-c2ccccc2Cl)nc2ccsc12 | -2.52 |
| COc1cccc(NC(=O)c2ccc(-n3cccn3)nc2)c1 | 0.109 |
| COc1cc2nc(SCc3ccc(Cl)cc3Cl)n(Cc3cccs3)c(=N)c2cc1OC | -0.0369 |
| COc1ccc(S(=O)(=O)N(CC(N)=O)C2CCCCC2)cc1Cl | -0.0291 |
| CCc1ccc(-c2nn(-c3ccccc3)cc2CSC(=N)N)cc1 | 0.64 |
| Fc1ccc(NC(=S)NCCc2ccccc2)c(F)c1F | 2.71 |
| Cc1ccc(C2C(C(N)=S)=C(N)OC3=C2C(=O)CC(C)(C)C3)cc1 (configuration not stated) | -0.111 |
| CCN1CCN(C(=O)CN(CC)S(=O)(=O)c2ccc(Cl)cc2)CC1 | 0.354 |
| C(=N\n1cnnc1)/c1ccc(N2CCOCC2)cc1 | 0.265 |
| CCCC(=O)N1CCN(c2ccc(NC(=O)c3cc4ccccc4o3)cc2Cl)CC1 | 0.0823 |
| COc1ccc(Cn2nnnc2C(c2ccccc2Cl)N2CCC(C(N)=O)CC2)cc1 (configuration not stated) | -0.197 |
| CCOc1ccccc1NC(=O)Nc1cc(OC)ccc1OC | -0.67 |
| Cc1ccccc1C(=O)O/N=C/c1c(N2CCOCC2)n(C)c2ccccc12 | -0.339 |
